Measured values: article PMC1885643 (Nucleic Acids Research, 2007)

T1: GST-hRad9 (human, UniProt Q99638 1-391)
T1 sequence (looked up): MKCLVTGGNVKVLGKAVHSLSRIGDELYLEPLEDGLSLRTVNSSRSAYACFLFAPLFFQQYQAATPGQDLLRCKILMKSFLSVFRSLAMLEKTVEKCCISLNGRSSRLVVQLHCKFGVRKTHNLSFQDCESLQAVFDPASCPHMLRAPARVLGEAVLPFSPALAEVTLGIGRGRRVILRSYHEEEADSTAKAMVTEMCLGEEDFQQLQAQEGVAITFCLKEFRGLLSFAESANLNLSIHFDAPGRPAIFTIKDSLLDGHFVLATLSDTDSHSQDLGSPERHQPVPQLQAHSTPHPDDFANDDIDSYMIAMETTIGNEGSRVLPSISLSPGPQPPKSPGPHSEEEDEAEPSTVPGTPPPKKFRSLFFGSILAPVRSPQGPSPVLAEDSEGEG

B1: processed intact hNEIL1 ([…]) (enzyme)
chain: not shown
B2: hNEIL1-CΔ40 ([…]) (domain or fragment)
chain: not shown

Target: T1, GST-hRad9
Experiment: pull-down

| Binder | binding result |
| --- | --- |
| B1 | binds |
| B2 | binds |
